In PubChem BioAssay AID1745853 (National Center for Advancing Translational Sciences (NCATS), 2022):
Several values for one entry are separate records, joined by “and”; a condition that tells them apart may be missing. Equal entries are not always repeated. Some of the results follow. The main result of the screen is listed elsewhere. These columns were measured beside it and carry no call.

Legend:
Experiment in all cases: Primary Screen for Target Class Profiling of Small Molecule Inhibitors of Methyltransferases
[1] = target: Glycine N-methyltransferase (Homo sapiens) (UniProt Q14749); details: purified enzyme, MTase-Glo SAH luminescence; measured here: GNMT inhibition; at 40 µM; stronger effect = lower value
Summary of the method: (§1)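 Each enzyme was assayed with SAM and its substrate. SAH formation detected by MTase-Glo luminescence; single-point 40 uM screen[…].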

[2] = target: Guanidinoacetate N-methyltransferase (Homo sapiens) (UniProt Q14353); details: purified enzyme, MTase-Glo SAH luminescence; measured here: GAMT inhibition; at 40 µM; stronger effect = lower value
Summary of the method: as §1

[3] = target: Histamine N-methyltransferase (Homo sapiens) (UniProt P50135); details: purified enzyme, MTase-Glo SAH luminescence; measured here: HNMT inhibition; at 40 µM; stronger effect = lower value
Summary of the method: as §1

[4] = target: Nicotinamide N-methyltransferase (Homo sapiens) (UniProt P40261); details: purified enzyme, MTase-Glo SAH luminescence; measured here: NNMT inhibition; at 40 µM; stronger effect = lower value
Summary of the method: as §1

[5] = target: Phenylethanolamine N-methyltransferase (Homo sapiens) (UniProt P11086); details: purified enzyme, MTase-Glo SAH luminescence; measured here: PNMT inhibition; at 40 µM; stronger effect = lower value
Summary of the method: as §1
On the % scale 0 is the no-effect control and ±100 the full control effect.

Row | SMILES | activity change, negative = inhibition [1] | activity change, negative = inhibition [2] | activity change, negative = inhibition [3] | activity change, negative = inhibition [4] | activity change, negative = inhibition [5]
1 | CCOc1ccccc1CN1C(=O)c2cc3occc3n2CC1(C)C(=O)NC1CCCCC1C (stereo not given) | 3.3% | 5.91% | 6.05% | -2.22% | -1.49%
2 | CCCn1c(=O)c2ccc(C(=O)NC(C)C)cc2n2c(SCC(=O)Nc3cccc(F)c3)nnc12 | 2.24% | 4.52% | 4.58% | -2.4% | -0.184%
3 | CCN(CC)CCCC(C)Nc1c2ccc(Cl)cc2nc2ccc(OC)cc12 (stereo not given) | 4.45% and -1.03% | -4.81% and 10.1% | -67.4% and -39.3% | -24.7% and -13.8% | -4.03% and -2.5%
4 | COc1cccc(NC[C@@H](O)Cn2c3ccc(Br)cc3c3cc(Br)ccc32)c1 | 5.71% | -29.4% | 0.151% | -39.6% | -8.36%
5 | COC(=O)CNC(=O)C1CCc2nnc(CNC(=O)NC(C)C)n21 (stereo not given) | -2.01% | -1.71% | -1.55% | -6.08% | -17.3%
6 | O=C(c1ccc[nH]1)N1CCC(n2cc(-c3nc(C4CC4)no3)nn2)C1 (stereo not given) | -3.47% | -1.95% | 1.51% | -6.07% | -1.27%
7 | CCc1cc(CN(C)C(=O)C(c2ccc(C)cc2)N(C)C)on1 (stereo not given) | 1.35% | -1.1% | 1.29% | -1.74% | -1.26%
8 | Cc1ccc(CNC(=O)C2(C)Cn3nc(C(=O)NCCc4ccco4)cc3C(=O)N2C)cc1 (stereo not given) | 5.07% | 0% | 6.23% | 3.24% | 2.99%
9 | CCCCc1nc2c3ccccc3n(CC(=O)N3CCN(c4ccc(F)cc4)CC3)c(=O)n2n1 | 17% | 0% | 13.8% | 5.38% | -0.846%
10 | C[C@@]12CCC(=O)C[C@@H]1C[C@H](OC(=O)Nc1ccccc1)CC2 | -7.85% | -12% | -3.6% | -20% | -17.1%
11 | Cc1cccc(N2C(=O)c3cc4occc4n3CC2(C)C(=O)NC2CCCCC2)c1C (stereo not given) | 2.59% | -3.25% | 6.88% | 11.5% | -0.252%
12 | COCCn1cnnc1CNc1cc(-c2ccncc2)nc2ccnn12 | -2.76% | 2.36% | -2.83% | -4.31% | 11.7%
13 | O=C1CC(c2cn[nH]c2C(=O)O)c2c(n[nH]c2-c2cccs2)N1 (stereo not given) | -7.78% | -9.64% | -2.97% | -5.47% | 6.32%
14 | O=C(NCC1CCN(c2cc(-c3ccccc3)[nH]n2)CC1)c1ccc2nc[nH]c2c1 | -13.1% | -3.06% | -6.01% | -8.4% | -5.64%
15 | CN(C)CC(=O)N1CCC(c2ccc(NC(=O)c3ncc(C#N)[nH]3)c(C3=CCCCC3)c2)CC1 | -3.2% | -1.56% | -0.057% | -19.1% | -11.2%
16 | Cc1cc(C)cc(NC(=S)N[C@H]2CO[C@H]3[C@@H]2OC[C@H]3OC(=O)NC2CCCCC2)c1 | -2.77% | -1.23% | -4.38% | -9.26% | -3.75%
17 | C=CC(C)(O)CC/C=C(\C)C1CC=C(C)C(=O)O1 (stereo not given) | 0.677% | -4.39% | 6.68% | -20% | 1.74%
18 | CCOCCCN1C(=O)c2cc3ccc(OC)cc3n2CC1(C)C(=O)NC1CCCCC1 (stereo not given) | -1.57% | 3.67% | -0.61% | 1.57% | -1.84%
19 | CC(C)c1ccc(CO)cc1O[C@@H]1O[C@H](CO)[C@@H](O)[C@H](O)[C@H]1O | 0% | 8.2% | 12.7% | -2.83% | 4.95%
20 | CC(C)CNC(=O)c1ccc2c(=O)n(C(C)C)c3nn(CC(=O)Nc4cccc(F)c4)c(=O)n3c2c1 | 0.778% | 0% | 1.19% | -2.52% | 1.44%

Row | SMILES | activity change, negative = inhibition [1] | activity change, negative = inhibition [2] | activity change, negative = inhibition [3] | activity change, negative = inhibition [4] | activity change, negative = inhibition [5]
21 | COc1cccc(CSc2nnc3n(Cc4ccccc4)c(=O)c4ccc(C(=O)NC(C)C)cc4n23)c1 | 3.57% | 4.32% | 8.22% | -0.746% | 4.53%
22 | COc1ccccc1CNc1nc2c(-c3ccc(Cl)cc3)nnn2c2ccccc12 | -1.43% | 0% | 2.65% | 3.92% | 0.373%
23 | Cn1cc(-c2cn(C)c(=O)n3cc(CNc4ccccc4)nc23)cn1 | -24.4% | -7.4% | -6.53% | -16.8% | -16%
24 | CCc1ccc(NC(=O)c2sc(=S)n3c2[nH]c(=O)c2cc(Cl)ccc23)cc1 | -16% | 0% | 1.41% | -21.4% | -29.8%
25 | CC1=C(C)C(=O)C(CCCCC#CCCCC#CCO)=C(C)C1=O | -37% | 12% | 5.85% | -4.38% | 2.85%
26 | COc1ccc(C)cc1NS(=O)(=O)c1cc2[nH]c(=O)[nH]c2cc1Cl | -5.27% | 1.24% | -3.31% | -9.6% | -11%
27 | CN(C)C(=O)c1ccc(S(=O)(=O)c2ccc(NC(=O)[C@@](C)(O)C(F)(F)F)c(Cl)c2)cc1 | 2.58% | -0.1% | 9.13% | -12.6% | 5.54%
28 | CCOC(=O)C1CCN(C(=O)CN(C)S(=O)(=O)c2ccc3c(c2)CCCC(=O)N3)CC1 | 7.57% | 0.241% | 12.6% | 11.3% | 6.07%
29 | CC(N)(Cc1ccc(O)cc1)C(=O)O (stereo not given) | 2.06% | -4.47% | 3.98% | -12.7% | -8.15%
30 | CC(C)NCC(O)c1ccc(NS(C)(=O)=O)cc1 (stereo not given) | 7.13% | 13% | 13.1% | -4.44% | 3.74%
31 | C=C(C)[C@H]1C[C@@H](O)C(=C)CC[C@@H](O)C(=C)[C@@H](O)C1 | 6.19% | 4.77% | 12.6% | -7.86% | 10.1%
32 | COc1ccc(-c2nnc(-c3ccccc3)o2)cc1S(=O)(=O)N1CCSCC1 | 2.66% | 0.96% | 0.821% | -0.792% | 4.47%
33 | Cc1nn(CC(=O)N2CCCCCC2)c(=O)c2nc(C(C)C)sc12 | -3.64% | -0.586% | -1.55% | -2.67% | 1.32%
34 | CCCn1c(=O)c2cc(F)ccc2n2c(SCC(=O)Nc3ccc(Cl)cc3)nnc12 | 3.79% | 0.043% | 11.3% | -4.48% | 5.36%
35 | CCC(C)NC(=O)c1ccc2c(=O)n(C)c3nnc(SCC(=O)NCc4ccc(C)cc4)n3c2c1 (stereo not given) | 1.04% | 2.42% | 0.929% | -1.51% | -1.18%
36 | O=C(CCCn1cncn1)N1CCCC(CCc2ccccc2C(F)(F)F)C1 (stereo not given) | -6.72% | -8.18% | -4.19% | -19.1% | -5.2%
37 | CCN(CCCNC(=O)CCc1nnc2n(Cc3ccccc3)c(=O)c3ccccc3n12)c1cccc(C)c1 | -8.03% | -12.2% | -20.2% | -19.5% | -14.7%
38 | Cc1ccc(Cn2c(=O)c3ccc(C(=O)NC(C)C)cc3n3c(=O)n(Cc4ccc(F)cc4)nc23)cc1 | 0.809% | 3.96% | 0.595% | 1.8% | 0.707%
39 | CC(=O)O[C@H]1C[C@@H]2[C@]3(CC[C@]4(C)[C@@H](C5(C)CCC(C(C)(C)O)O5)[C@@H](O)C[C@@]24C)C[C@@]32CC[C@H](O[C@@H]3OC[C@@H](O)[C@H](O)[C@H]3O)C(C)(C)[C@H]12 (stereo not given in full) | -5.29% | -16.6% | 1.52% | -27.2% | 0.537%
